Assay results reported in PMC4336329 (PLoS ONE, 2015).
In all, about 310,000 compounds went through this assay and about 14,000 (4.5%) showed an effect of 50% or more. The effect is printed as a negative number. This is one part of the list.

These compounds were tested against human ether-à-go-go-related gene (hERG) potassium channel (human, UniProt Q12809) (assay: primary screen, population patch clamp on CHO cells stably expressing hERG).
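Note: peak tail current of the secondary pulse compared with the same well before compound.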

Sequence of human ether-à-go-go-related gene (hERG) potassium channel (Q12809 whole entry, looked up): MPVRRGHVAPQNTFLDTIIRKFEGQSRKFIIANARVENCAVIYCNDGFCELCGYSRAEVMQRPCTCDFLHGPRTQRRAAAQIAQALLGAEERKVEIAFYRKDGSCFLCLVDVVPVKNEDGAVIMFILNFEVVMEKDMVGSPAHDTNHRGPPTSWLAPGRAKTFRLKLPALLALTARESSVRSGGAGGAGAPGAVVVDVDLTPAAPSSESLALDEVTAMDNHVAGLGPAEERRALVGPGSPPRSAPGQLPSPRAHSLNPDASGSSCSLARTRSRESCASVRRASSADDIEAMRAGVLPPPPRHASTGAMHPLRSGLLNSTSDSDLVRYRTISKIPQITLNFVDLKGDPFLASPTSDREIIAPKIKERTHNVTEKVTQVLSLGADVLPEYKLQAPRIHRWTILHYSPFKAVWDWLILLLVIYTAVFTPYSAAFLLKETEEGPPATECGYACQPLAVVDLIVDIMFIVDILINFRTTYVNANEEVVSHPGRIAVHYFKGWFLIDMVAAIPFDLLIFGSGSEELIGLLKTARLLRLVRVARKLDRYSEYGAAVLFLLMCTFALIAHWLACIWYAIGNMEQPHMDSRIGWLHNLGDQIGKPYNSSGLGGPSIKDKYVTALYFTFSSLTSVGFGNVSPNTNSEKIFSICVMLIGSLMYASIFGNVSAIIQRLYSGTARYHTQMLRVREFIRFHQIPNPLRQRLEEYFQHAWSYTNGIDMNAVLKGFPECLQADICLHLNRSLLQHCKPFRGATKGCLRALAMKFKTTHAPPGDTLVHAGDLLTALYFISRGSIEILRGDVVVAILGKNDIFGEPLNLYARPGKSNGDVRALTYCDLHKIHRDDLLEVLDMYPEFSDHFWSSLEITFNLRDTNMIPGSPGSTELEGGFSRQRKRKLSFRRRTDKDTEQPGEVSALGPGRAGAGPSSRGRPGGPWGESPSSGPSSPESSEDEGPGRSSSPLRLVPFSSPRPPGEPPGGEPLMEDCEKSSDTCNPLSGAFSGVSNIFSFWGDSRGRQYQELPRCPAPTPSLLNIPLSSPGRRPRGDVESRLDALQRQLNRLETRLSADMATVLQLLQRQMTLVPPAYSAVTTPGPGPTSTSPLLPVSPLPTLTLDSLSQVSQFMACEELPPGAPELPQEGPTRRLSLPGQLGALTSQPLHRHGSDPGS

SMILES | hERG current change (%, negative = inhibition) at 10uM [%]
CSCC[C@H](NC(=O)[C@@H]1CSC2c3ccccc3C(=O)N21)C(=O)NCc1ccco1 (some centres unmarked) | -16.8
C=CCn1c(O)c(/C=N/NC(=O)CCCC)c(=O)[nH]c1=S | 19.4
COc1ccc(NS(=O)(=O)c2cccc(NC(=O)c3ccccn3)c2)cc1 | -13.1
CCCC1=Nc2cc(C(=O)NCCN3CCOCC3)ccc2Sc2ccccc21 | -8.26
Cc1nn(-c2ccc(C(F)(F)F)cn2)c(C)c1Oc1ccccc1O | 17.3
O=C(CNC(=O)c1ccc(Cl)cc1)OCC(=O)c1ccc2c(c1)OCCO2 | -11.8
CCCC(=O)OCC(=O)Nc1ccccc1Sc1ccccc1 | 14.7
Cc1nn(Cc2c(Cl)cccc2Cl)c(C)c1C(=O)NCc1ccc(C)n1C | 1.38
O=C(COC(=O)Cc1n[nH]c(=O)c2ccccc12)Nc1ccc(Cl)cc1F | 10.7
CC(C)C(=O)NC(=S)N(Cc1ccccc1)Cc1ccccc1 | -40.2
COc1ccc(OC)c(NP(=O)(Oc2ccc(Cl)cc2)Oc2ccc(Cl)cc2)c1 | 9.79
COc1ccc(CN(C)C(=O)Cc2ccc(OC)c(S(=O)(=O)N3CCOCC3)c2)cc1 | -20.4
O=C(N/N=C/c1cccc(F)c1)c1cc(-c2ccco2)nc2ccccc12 | 9.96
O=C(CN1C(=O)C2C3C=CC(C3)C2C1=O)NCc1ccc2c(c1)OCO2 (centres unmarked) | -1.81
CN1CCN(C(=O)C2CCN(S(=O)(=O)c3cnc[nH]3)CC2)CC1 | 12.7
COCCNC(=O)CN(CCc1ccccc1)S(=O)(=O)c1ccc(Br)cc1 | -14.9
CC(C)(C)OC(=O)N[C@@H](Cc1ccccc1)C(=O)NCC1CCC(C(=O)N[C@@H](CC(=O)O)C(=O)O)CC1 (some centres unmarked) | 28.4
CCCCc1[nH]c(=O)c(C#N)c2c1CSC(C)(C)C2 | 7.18
CCOC(=O)c1c(NC(=O)Cn2nc([N+](=O)[O-])c(Br)c2C)sc2c1CCC(C)C2 (centres unmarked) | 17.6
CC(Cc1ccccc1)C(=O)N1CCN(C)CC1 (centres unmarked) | 14.4
CC(=O)N1c2ccc(S(=O)(=O)N3CCCC(C(=O)NCc4ccccc4Cl)C3)cc2CC1C (centres unmarked) | -10.8
O=C1NC2(CCCCCC2)C(=O)N1Cc1cccc([N+](=O)[O-])c1 | 1.22
Cc1csc(NC(=O)CSCC(=O)O)c1-c1nc2ccccc2s1 | 6.16
